# The whole screen tested about 310,000 compounds, of which about 2,200 (0.71%) showed an effect of 50% or more. Effects have a minus sign here. Some of the results follow.
# Molecular target: human ether-à-go-go-related gene (hERG) potassium channel (human, UniProt Q12809)
# Experiment: primary screen, population patch clamp on CHO cells stably expressing hERG
# human ether-à-go-go-related gene (hERG) potassium channel, sequence (Q12809 whole entry, looked up): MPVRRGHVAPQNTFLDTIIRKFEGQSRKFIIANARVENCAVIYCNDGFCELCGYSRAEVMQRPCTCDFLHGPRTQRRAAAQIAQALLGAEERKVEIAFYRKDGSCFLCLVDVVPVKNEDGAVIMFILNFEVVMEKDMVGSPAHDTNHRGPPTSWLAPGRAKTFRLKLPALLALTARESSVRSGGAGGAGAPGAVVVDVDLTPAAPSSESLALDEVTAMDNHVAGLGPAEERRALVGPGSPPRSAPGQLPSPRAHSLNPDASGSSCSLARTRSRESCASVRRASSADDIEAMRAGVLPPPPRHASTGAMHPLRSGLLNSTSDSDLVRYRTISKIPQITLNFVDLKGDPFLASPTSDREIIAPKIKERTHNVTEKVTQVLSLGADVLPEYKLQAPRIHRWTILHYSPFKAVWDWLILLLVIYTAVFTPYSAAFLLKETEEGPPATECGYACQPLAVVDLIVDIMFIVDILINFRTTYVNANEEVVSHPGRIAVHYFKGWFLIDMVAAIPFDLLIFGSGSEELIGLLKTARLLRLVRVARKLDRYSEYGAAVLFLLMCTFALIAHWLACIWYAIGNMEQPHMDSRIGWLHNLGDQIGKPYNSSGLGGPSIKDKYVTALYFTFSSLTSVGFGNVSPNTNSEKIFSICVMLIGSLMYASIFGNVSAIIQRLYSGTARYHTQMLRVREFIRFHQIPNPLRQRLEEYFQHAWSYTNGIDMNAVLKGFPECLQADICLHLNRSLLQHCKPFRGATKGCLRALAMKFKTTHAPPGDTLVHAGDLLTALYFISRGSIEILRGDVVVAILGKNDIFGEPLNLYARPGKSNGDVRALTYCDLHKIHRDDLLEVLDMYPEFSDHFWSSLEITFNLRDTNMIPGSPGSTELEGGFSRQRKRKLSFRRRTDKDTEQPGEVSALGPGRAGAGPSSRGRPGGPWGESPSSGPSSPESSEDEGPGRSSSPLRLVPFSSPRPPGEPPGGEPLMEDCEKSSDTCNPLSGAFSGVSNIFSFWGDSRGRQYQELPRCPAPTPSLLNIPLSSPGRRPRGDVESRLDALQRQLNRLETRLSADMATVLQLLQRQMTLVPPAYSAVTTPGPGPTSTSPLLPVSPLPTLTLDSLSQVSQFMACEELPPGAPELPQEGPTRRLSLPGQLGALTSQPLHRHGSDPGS
row,Compound,"hERG current change (%, negative = inhibition) at 1uM"
1,Cc1ccc(-n2c(C)cc(C(=O)COC(=O)C3=NNC(=O)CC3)c2C)cc1,-41.2%
2,O=C(NC1CCN(Cc2ccccc2)CC1)c1ccc(Cl)cc1Cl,-22.7%
3,CCOC(=O)NC1(NCc2ccccc2)Oc2ccccc2O1,8.63%
4,Cc1ccnc(NC(=O)CCC(=O)N(CC(=O)NCCc2ccccc2)Cc2cccs2)c1,15.2%
5,C=CCNC(=S)NNC(=O)c1ccccc1,11.6%
6,CC1=Nn2c(nnc2-c2ccco2)SC1,7.27%
7,Fc1cccc(NCc2ccoc2)c1,1.53%
8,COC(=O)c1cnc(SCC(=O)c2ccccc2)n1C,11.1%
9,O=C(N/N=C/c1ccc[nH]1)c1ccc([N+](=O)[O-])cc1,10.3%
10,Oc1c(C(c2cccs2)N2CCN(c3ccccc3)CC2)ccc2cccnc12 (centres unmarked),8.1%
11,FC(F)(F)Oc1ccc(NC(=S)Nc2ccc(OC(F)(F)F)cc2)cc1,11.8%
12,O=C1C(Cc2ccc(Br)cc2)SC(=Nc2ccccc2)N1c1ccccc1 (centres unmarked),5.1%
13,N#Cc1cccc(NC(=O)CN2C(=O)NC3(CCCCCC3)C2=O)c1,9.73%
14,CCOc1cc(N2CCOCC2)c(OCC)cc1NC(=O)Cn1nc(C)c([N+](=O)[O-])c1C,6.15%
15,O=c1[nH]c2ccc(S(=O)(=O)N3CCCC3)cc2[nH]1,17.2%
16,CCC(CC)c1nnc(NC(=O)CCS(=O)(=O)Cc2ccccc2)s1,18.4%
17,COC(=O)C(Cc1ccc(O)cc1)NC(=O)NC12CC3CC(CC(C3)C1)C2 (centres unmarked),10.4%
18,CC(C)NC(=O)C1c2ccccc2Oc2ccccc21,9.11%
19,COC(=O)C(C(=O)OC)c1ncccc1[N+](=O)[O-],5.36%
20,CCOC(=O)C1=C(C)NC(=O)NC1c1ccc(OC)c(Cl)c1 (centres unmarked),-0.266%
21,CC1SC(=NC(=O)c2ccco2)NC1=O (centres unmarked),5.47%
22,CCCN1CCC(NC(=O)Nc2cc(Cl)ccc2OC)CC1,10.7%
23,Cc1csc(NC(=O)CSc2nnc3ncccn23)n1,-4.58%

row,Compound,"hERG current change (%, negative = inhibition) at 1uM"
1,O=C(NC(=S)N1CCOCC1)C12CCC3CC(CC(C3)C1)C2,12.8%
2,COc1ccc(CNc2ccc(Cl)cc2)cc1Cn1ccnc1,10.9%
3,CC(C)C(=O)Nc1nc(-c2ccc([N+](=O)[O-])cc2)cs1,11.4%
4,CSCC[C@H](NC(=O)NCc1cccs1)C(=O)O,-3.52%
5,COc1cccc(C2C(C(=O)OC(C)C)=C(C)Nc3ncnn32)c1 (centres unmarked),0.149%
6,CC(C)(C)c1ccc(NC(=O)Nc2ccc(OCC(=O)N3CCOCC3)cc2)cc1,5.4%
7,COc1ccc(-n2cnc3cc(C(=O)NCCN4CCOCC4)ccc32)cc1,11.5%
8,Cc1cc(C[n+]2ccsc2N)c2ncccc2c1.[Br-],-20.1%
9,CC1=CCC(C(C)(C)NC(=O)c2ccccc2)C/C1=N\O (centres unmarked),-9.97%
10,O=C(NNC1=NCCC1)c1cccc(S(=O)(=O)N2CCCCC2)c1,18.2%
11,Cc1cnc(N2C(=O)c3ccc([N+](=O)[O-])cc3C2=O)s1,14.1%
12,Cc1occc1C(=O)Nc1nnc(-c2ccncc2)s1,6.44%
13,Cc1nc2ccc(S(=O)(=O)NC(C(=O)Nc3nc4ccc(Cl)cc4s3)C(C)C)cc2s1 (centres unmarked),7.34%
14,COc1ccc(C2=NC(=O)/C(=C\c3cc(OC)c(OC)c(OC)c3)O2)cc1,12.3%
15,CCOc1ccccc1-c1nc(C(N)=O)c2[nH]c(=O)n(-c3ccccc3)c2n1,17.4%
16,CC1CCCN(C(=O)C2(NC(=O)Nc3cccc(F)c3)CCCCC2)C1 (centres unmarked),9.85%
17,COc1cccc(NS(=O)(=O)c2ccc3c(c2)CCCN3C(C)=O)c1,0.314%
18,CCC(=O)N1CCc2cc(S(=O)(=O)NC(C(=O)NCc3ccc(C)cc3)C(C)C)ccc21 (centres unmarked),1.57%
19,CCOC(=O)N1CCN(C(=O)/C=C/c2ccc(OC)c(OC)c2)CC1,10.9%
20,CC(/C=N/NC(=O)c1ccncc1)=C\c1ccco1,14.7%
21,O=C(CCC(=O)N1CCOc2ccc(Cl)cc21)NCCCN1CCOCC1,12.5%
22,Cc1nc2nc(C)c(NS(=O)(=O)c3ccc4c(c3)CCCC4)c(=O)n2[nH]1,13.1%
23,CCCNC(=O)Nc1cc(OC)c(OC)cc1Cc1nccc2cc(OC)c(OC)cc12,12.8%

row,Compound,"hERG current change (%, negative = inhibition) at 1uM"
1,Cc1cc(O)c(C(C)C)cc1NC(=O)Nc1cccc2ccccc12,13.8%
2,Cc1cccc(NS(=O)(=O)c2c(C)n[nH]c2C)c1,9.77%
3,O=C(C1=C[C@@H](c2ccc(Br)cc2)C[C@@H](OCCCCO)O1)N1CCOCC1,9.49%
4,Cc1ccc(C(=O)Nc2cccc([N+](=O)[O-])c2)cc1S(=O)(=O)Nc1ccc(NC(=O)c2ccccc2)cc1,-0.104%
5,O=C(Nc1ccccc1Cl)c1cccc(NC(=O)C2C3CC4OC(=O)C2C4C3)c1 (centres unmarked),13.2%
6,Cc1cccc2cc(CN(Cc3cccs3)S(=O)(=O)c3ccc4c(c3)OCCO4)c(=O)[nH]c12,8.3%
7,O=C(Nc1cc(SCCO)cc([N+](=O)[O-])c1)c1ccco1,6.6%
8,Cc1ccc(C(=O)CSc2ccc(-c3cccnc3)nn2)cc1,7.54%
9,CSc1nc2c(c(C(F)(F)F)n1)CC(C)CC2 (centres unmarked),15%
10,Cc1cc2c(cc1S(=O)(=O)N(C)c1ccccc1)NC(=O)CO2,14.2%
11,COc1ccc(C(=O)N2CCc3cc4c(cc3C2C)OCCCO4)cc1 (centres unmarked),7.69%
12,CCCCCC/C=C/c1ccc(OC)c([C@H]2[C@H]3C=CC[C@@H](C)[C@@H]3C(=O)N2Cc2ccccc2)c1,10.9%
13,CC[C@H]1C2C[C@H]3[C@@H]4N(C)c5ccccc5C45C[C@H](C2[C@H]5O)N3[C@@H]1O (some centres unmarked),-13.1%
14,CCOC(=O)N1CCN(C(=O)CN(c2cccc(C(F)(F)F)c2)S(C)(=O)=O)CC1,-13.1%
15,CS(=O)(=O)c1ccccc1C(=O)Nc1ccc(-c2nc3ccccc3o2)cc1,20.8%
16,Brc1ccc(OCc2nc3ccccc3[nH]2)cc1,17.5%
17,Cc1sc2ncnc(N3CCC(C(=O)NNC(=O)COc4cccc(C(F)(F)F)c4)CC3)c2c1C,8.66%
18,C#CCn1c(O)c(N=NC(=O)CNC(=O)/C=C/c2ccccc2)c2ccccc21,2.37%
19,COc1ccc(NC(=O)NNS(=O)(=O)c2cc(C)ccc2C)cc1OC,10.2%
20,COc1ccccc1C(=O)NCCC(=O)N1CC=C(c2ccccc2)CC1,3.48%
21,O=C(O)CSCNC(=O)CC12CC3CC(CC(C3)C1)C2,10.9%
22,CCN(CC(=O)Nc1ccc(NC(C)=O)cc1)C(=O)c1ccc(=O)[nH]c1,7.6%
23,O=C(c1ccc(Cl)cc1)N1CCOc2ccccc21,12.3%

row,Compound,"hERG current change (%, negative = inhibition) at 1uM"
1,O=C(c1ccc2c3c(cccc13)CC2)C1CCCN(C(=O)c2ccc(=O)[nH]c2)C1 (centres unmarked),9.4%
2,NC(=O)C1CCCN(C(=O)c2cccc(S(=O)(=O)N3CCCCCC3)c2)C1 (centres unmarked),15.5%
3,CCC(C)N=Cc1c(O)n(-c2ccccc2)c(=O)[nH]c1=O (centres unmarked),8.89%
4,CCc1nnc(NC(=O)CSc2nnc(CNC(=O)c3ccccc3F)n2C)s1,17%
5,CSc1ccc(CCNC(=O)c2cc(C)nn2-c2ccccc2)cc1,3.73%
6,COC(=O)c1cc(C)[nH]c2c(C)cc3nc4ccccc4c3c12,15.7%
7,CCN(CC)S(=O)(=O)c1ccc(N/N=C(\C)c2ccc3c(c2)OCO3)c([N+](=O)[O-])c1,14%
8,O=C(C1=C[C@@H](C2CC2)C[C@@H](OCc2ccc(CO)cc2)O1)N1CCOCC1,16.4%
9,COc1ccc(NC(=O)C2=CC(c3ccc(OC)cc3)=NS(=O)(=O)N2C)cc1,8.2%
10,Cc1cc(Br)ccc1NC(=S)NC1CCCC1,14.3%
11,O=C(O)C1CN(c2nc(Cl)ccc2[N+](=O)[O-])C1,13.1%
12,S=C(NCc1ccco1)Nc1ccc(Oc2ccccc2)cc1,5.98%
13,CCc1ccc(C(=O)NNC(=O)CN2C(=O)NC(CC)(c3ccccc3)C2=O)cc1 (centres unmarked),1.17%
14,O=C(OCc1nc2ccccc2s1)C1CCN(S(=O)(=O)c2cccs2)CC1,-2.2%
15,Cc1ccc(C(=O)Nc2cccnc2)cc1[N+](=O)[O-],14.1%
16,O=C(c1ccc(Oc2ccc(C(F)(F)F)cn2)cc1)N1CCN(c2ccccc2)CC1,-4.18%
17,CCOC(=O)c1cc(NC(=O)Nc2nccs2)c(C)nc1C,12.8%
18,Cc1ccc(N=C2C(=O)Nc3ccc(C)c(Br)c32)cc1,16.4%
19,Cc1cc(N)n(-c2ccccc2C)n1,-4.81%
20,Cc1cc(C(=O)Nc2ccc(C)c(S(=O)(=O)N3CCOCC3)c2)c(C)o1,8.83%
